# Source: PubChem BioAssay AID1159580 (chemical genetic matrix, 2015)
# In all, about 5,500 compounds went through this assay and about 2,000 (36%) were called active. Inconclusive means that the source gave no clear call. Such entries were picked first, then a sample of the others. Cut-off read from the data, not from the text of the source: active = normalized growth mostly below about 0.91 (no sharp cut-off); inconclusive = no clear call, values can overlap the other calls; inactive = mostly above about 0.92. Where a structure was tested more than once in an assay, its records may differ in their call.
# Assay: chemical genetic growth profiling, strain panel (AID 1159580);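 note: tested at 20 µM; growth read once vehicle control cultures reached saturation at 30 °C; 1 = growth at the plate median or of vehicle wells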
# Details: S. cerevisiae deletion strains, growth OD
# [1] = locus YEL061C, strain CIN8, stronger effect = lower value
# [2] = locus YJL128C, strain PBS2, stronger effect = lower value
# [3] = locus YAL040C, strain CLN3, stronger effect = lower value
# [4] = locus YNL175C, strain NOP13, stronger effect = lower value
# [5] = locus YJL168C, strain set2, stronger effect = lower value
# [6] = locus YAR019C, strain CDC15, stronger effect = lower value
# [7] = locus YDL101C, strain DUN1, stronger effect = lower value
# [8] = locus YFL009W, strain cdc4, stronger effect = lower value
# [9] = locus YKL193C, strain SDS22, stronger effect = lower value
# [10] = locus YDL132W, strain cdc53, stronger effect = lower value
# [11] = locus YDR054C, strain cdc34, stronger effect = lower value
# [12] = locus YFL029C, strain CAK1, stronger effect = lower value
# [13] = locus YOL078W, strain AVO1, stronger effect = lower value
# [14] = strain TSCII, stronger effect = lower value
# [15] = locus YHR030C, strain SLT2, stronger effect = lower value
# [16] = locus YMR001C, strain CDC5, stronger effect = lower value
# [17] = locus YAL013W, strain DEP1, stronger effect = lower value
smiles,measurement,setting,value
COc1ccc2c(=O)cc(-c3ccccc3OC)oc2c1,normalized growth,[1],inconclusive: 0.909 [sensitive]
same,normalized growth,"locus YER167W, strain BCK2, stronger effect = lower value",inconclusive: 0.882 [sensitive]
CC(C)c1c(O)ccc2c1CCC1[C@@](C)(C=O)CCC[C@]21C (stereo partly specified),normalized growth,"locus YER015W, strain faa2, stronger effect = lower value",inconclusive: 0.924 [sensitive]
same,normalized growth,"locus YHR027C, strain rpn1, stronger effect = lower value",inconclusive: 0.899 [sensitive]
NCCc1ccc(O)c(O)c1,normalized growth,"locus YOR070C, strain gyp1, stronger effect = lower value",inconclusive: 0.89 [sensitive]
CC(C)(O)C#Cc1ccc(/C=N\Nc2c(Cl)cc(Cl)cc2Cl)cc1,normalized growth,[2],inconclusive: 0.849 [sensitive]
same,normalized growth,"locus YLR133W, strain CKI1, stronger effect = lower value",inconclusive: 0.734 [sensitive]
same,normalized growth,"locus YLR403W, strain SFP1, stronger effect = lower value",inconclusive: 0.648 [sensitive]
C[N+](C)(C)CCOC(=O)CBr,normalized growth,[3],inconclusive: 0.792 [sensitive]
COC1=C[C@@H]2[C@@H]3Cc4ccc(OC)c(O)c4[C@]2(CCN3C)CC1=O,normalized growth,"locus YMR223W, strain ubp8, stronger effect = lower value",inconclusive: 0.714 [sensitive]
NC(Cc1ccc(F)cc1)C(=O)O (stereo unspecified),normalized growth,"locus YBR279W, strain paf1, stronger effect = lower value",inconclusive: 0.51 [sensitive]
COC(=O)C[C@H]1C2(C)CC34OC5(C)O[C@@]6([C@H](OC(C)=O)C(OC(C)=O)[C@]7(C)C(/C(=C(/O)C(C)C)C(=O)O[C@H]7c7ccoc7)[C@@]6(O5)[C@H](OC(C)=O)[C@@]3(O)C2OC(=O)C(C)C)[C@]14C (stereo partly specified),normalized growth,"locus YKL085W, strain MDH1 (second series), stronger effect = lower value",inconclusive: 1.1 [resistant]
same,normalized growth,"locus YKL085W, strain MDH1, stronger effect = lower value",inconclusive: 1.1 [resistant]
NNCc1cccc(O)c1,normalized growth,"locus YDL185W, strain tfp1, stronger effect = lower value",inconclusive: 0.849 [sensitive]
CCCN(CCC)[C@@H]1CCc2c(F)ccc(O)c2C1,normalized growth,[4],inconclusive: 0.78 [sensitive]
O=C(Oc1cc(O)cc2c1C[C@@H](OC(=O)c1cc(O)c(O)c(O)c1)[C@@H](c1cc(O)c(O)c(O)c1)O2)c1cc(O)c(O)c(O)c1,normalized growth,"locus YMR058W, strain fet3, stronger effect = lower value",inconclusive: 0.851 [sensitive]
c1cc(CN2CCCCC2)cc(OCCCNc2nc3ccccc3s2)c1,normalized growth,[4],inconclusive: 0.825 [sensitive]
CC(=O)c1ccc(-c2ccc(Cl)c(Cl)c2)o1,normalized growth,"locus YDR150W, strain NUM1, stronger effect = lower value",inconclusive: 0.743 [sensitive]
Cc1cc2cc3c(C)cc(=O)oc3c(C)c2o1,normalized growth,[5],inconclusive: 1.23 [resistant]
CN(C)CCC(c1ccc(Br)cc1)c1ccccn1 (stereo unspecified),normalized growth,"locus YKR091W, strain srl3, stronger effect = lower value",inconclusive: 0.908 [sensitive]
Oc1c(Cl)cc(Cl)c2cccnc12,normalized growth,"locus YOL012C, strain htz1",inconclusive: 0.191 [sensitive]
CC(=O)O[C@H]1C[C@H](O[C@H]2[C@@H](O)C[C@H](O[C@H]3[C@@H](O)C[C@H](O[C@H]4CC[C@@]5(C)C(CCC6C5C[C@@H](O)[C@]5(C)[C@@H](C7=CC(=O)OC7)CC[C@]65O)C4)O[C@@H]3C)O[C@@H]2C)O[C@H](C)[C@H]1O[C@@H]1O[C@H](CO)[C@@H](O)[C@H](O)[C@H]1O (stereo partly specified),normalized growth,"locus YHR079C, strain IRE1 (second series), stronger effect = lower value",inconclusive: 0.899 [sensitive]
O=C(Oc1ccc(C(F)(F)F)cc1[N+](=O)[O-])c1cccc(Cl)c1,normalized growth,[6],inconclusive: 0.551 [sensitive]
same,normalized growth,"locus YBR136W, strain MEC1, stronger effect = lower value",inconclusive: 0.631 [sensitive]
same,normalized growth,[7],inconclusive: 0.615 [sensitive]
same,normalized growth,"locus YDR226W, strain ADK1, stronger effect = lower value",inconclusive: 0.604 [sensitive]
same,normalized growth,[8],inconclusive: 0.567 [sensitive]
same,normalized growth,"locus YFR019W, strain FAB1, stronger effect = lower value",inconclusive: 0.633 [sensitive]
same,normalized growth,"locus YJR016C, strain ILV3, stronger effect = lower value",inconclusive: 0.58 [sensitive]
same,normalized growth,[9],inconclusive: 0.557 [sensitive]
same,normalized growth,"locus YNL161W, strain CBK1, stronger effect = lower value",inconclusive: 0.578 [sensitive]
NNC(=O)COc1ccc(C2SCCS2)cc1,normalized growth,[6],inconclusive: 0.865 [sensitive]
same,normalized growth,[10],inconclusive: 0.875 [sensitive]
same,normalized growth,[11],inconclusive: 0.734 [sensitive]
same,normalized growth,[8],inconclusive: 0.826 [sensitive]
same,normalized growth,[12],inconclusive: 0.83 [sensitive]
same,normalized growth,[2],inconclusive: 0.618 [sensitive]
same,normalized growth,[13],inconclusive: 0.877 [sensitive]
same,normalized growth,[14],inconclusive: 0.798 [sensitive]
O=C(Nc1ccc(F)cc1)c1cc(Br)ccc1O,normalized growth,[15],inconclusive: 0.837 [sensitive]
CC(C)CCCC(C)C1CCC2C3C[C@@H](O)[C@@]4(O)C[C@@H](O)CC[C@]4(C)C3CC[C@]12C (stereo partly specified),normalized growth,"locus YDR159W, strain sac3, stronger effect = lower value",inconclusive: 0.821 [sensitive]
same,normalized growth,[1],inconclusive: 1.09 [resistant]
CCOC(=O)c1[nH]c(Cc2[nH]c(C(=O)OCC)c(C)c2C)c(C)c1C,normalized growth,"locus YJR075W, strain HOC1, stronger effect = lower value",inconclusive: 1.12 [resistant]
Cc1ccc(Sc2c(Sc3ccc(C)cc3)c(=O)c2=O)cc1,normalized growth,[11],inconclusive: 0.685 [sensitive]
same,normalized growth,[12],inconclusive: 0.831 [sensitive]
same,normalized growth,"locus YNL222W, strain SSU72, stronger effect = lower value",inconclusive: 0.869 [sensitive]
same,normalized growth,[13],inconclusive: 0.875 [sensitive]
CC(=O)Nc1ccc([N+](=O)[O-])cc1[N+](=O)[O-],normalized growth,[16],inconclusive: 0.752 [sensitive]
Cc1nnsc1C(=O)NNc1ccc(F)cc1F,normalized growth,"locus YOR061W, strain CKA2, stronger effect = lower value",inconclusive: 0.557 [sensitive]
Clc1ccc(-c2cnc(Nc3cc(Cl)cc(Cl)c3)s2)cc1,normalized growth,[6],inconclusive: 0.743 [sensitive]
same,normalized growth,"locus YBR160W, strain CDC28, stronger effect = lower value",inconclusive: 0.891 [sensitive]
same,normalized growth,"locus YDL028C, strain MPS1, stronger effect = lower value",inconclusive: 0.887 [sensitive]
same,normalized growth,[7],inconclusive: 0.882 [sensitive]
same,normalized growth,[10],inconclusive: 0.707 [sensitive]
same,normalized growth,[11],inconclusive: 0.56 [sensitive]
same,normalized growth,[8],inconclusive: 0.87 [sensitive]
same,normalized growth,[2],inconclusive: 0.843 [sensitive]
same,normalized growth,[9],inconclusive: 0.588 [sensitive]
same,normalized growth,"locus YKL203C, strain TOR2, stronger effect = lower value",inconclusive: 0.512 [sensitive]
same,normalized growth,[16],inconclusive: 0.632 [sensitive]
same,normalized growth,"locus YMR277W, strain FCP1, stronger effect = lower value",inconclusive: 0.706 [sensitive]
same,normalized growth,"locus YNL207W, strain RIO2, stronger effect = lower value",inconclusive: 0.711 [sensitive]
same,normalized growth,[13],inconclusive: 0.605 [sensitive]
same,normalized growth,"locus YPR106W, strain ISR1, stronger effect = lower value",inconclusive: 0.829 [sensitive]
same,normalized growth,[14],inconclusive: 0.622 [sensitive]
CCCNC(=O)NS(=O)(=O)c1ccc(Cl)cc1,normalized growth,"locus YGL086W, strain mad1, stronger effect = lower value",inconclusive: 0.926 [sensitive]
CC1(C)CC2C1CC[C@]1(C)CCC3C(C(=O)O)CC(=O)O[C@@]32C1 (stereo partly specified),normalized growth,"locus YCL069W, strain vba3, stronger effect = lower value",inconclusive: 1.08 [resistant]
same,normalized growth,"locus YNL248C, strain rpa49, stronger effect = lower value",inconclusive: 1.12 [resistant]
C[C@@H]1CC[C@@]23CCC4(C)[C@@](C=CC5[C@@]6(C)CC[C@H](O)C(C)(C)C6CC[C@]54C)(OC2=O)C3[C@H]1C (stereo partly specified),normalized growth,[5],inconclusive: 1.16 [resistant]
same,normalized growth,"locus YKL068W, stronger effect = lower value",inconclusive: 0.887 [sensitive]
CCOC(=O)c1c[nH]c2c(F)cccc2c1=O,normalized growth,[17],inconclusive: 0.906 [sensitive]
CCN(CC)C(=O)c1ccc(O)c(OC)c1,normalized growth,[17],inactive: 1.01
same,normalized growth,[3],inactive: 1.05
same,normalized growth,"locus YCL061C, strain MRC1 (second series), stronger effect = lower value",inactive: 1
same,normalized growth,"locus YDR363W, strain ESC2, stronger effect = lower value",inactive: 1.01
same,normalized growth,"locus YER002W, strain NOP16, stronger effect = lower value",inactive: 1.03
same,normalized growth,[15],inactive: 0.964
same,normalized growth,"locus YHR079C, strain IRE1, stronger effect = lower value",inactive: 0.997
same,normalized growth,"locus YJL095W, strain BCK1, stronger effect = lower value",inactive: 1
same,normalized growth,"locus YJR066W, strain TOR1, stronger effect = lower value",inactive: 0.957
same,normalized growth,"locus YLR113W, strain HOG1, stronger effect = lower value",inactive: 0.99
same,normalized growth,[4],inactive: 1.01
same,normalized growth,"locus YNL183C, strain NPR1, stronger effect = lower value",inactive: 0.938
same,normalized growth,"locus YNL197C, strain WHI3, stronger effect = lower value",inactive: 0.999
same,normalized growth,"locus YNL224C, strain SQS1, stronger effect = lower value",inactive: 1.01
same,normalized growth,"locus YNL322C, strain KRE1, stronger effect = lower value",inactive: 1.03
same,normalized growth,"locus YOR083W, strain WHI5 (second series), stronger effect = lower value",inactive: 1.01
same,normalized growth,"locus YOR231W, strain MKK1, stronger effect = lower value",inactive: 0.985
same,normalized growth,"locus YPL256C, strain CLN2, stronger effect = lower value",inactive: 0.975
Oc1cc2c(cc1O)C1c3ccc(O)c(O)c3OCC1(O)C2 (stereo unspecified),normalized growth,"locus YAL026C, strain drs2, stronger effect = lower value",inconclusive: 0.794 [sensitive]
same,normalized growth,"locus YGL167C, strain pmr1, stronger effect = lower value",inconclusive: 0.501 [sensitive]
